Source: PubChem BioAssay AID1347120 (National Center for Advancing Translational Sciences (NCATS), 2019)
“And” between values parts separate entries of the source, which are not always exact repeats. Equal entries are not always repeated. Out of some 390,000 compounds screened, about 930 (0.24%) were called active. Inconclusive means that the source gave no clear call. Such entries were picked first, then a sample of the others. The call rests on the fitted dose curve; in most records, active means well fitted activation curve with a large enough effect; inconclusive means small, poorly fitted or top-dose-only effect; inactive means no such curve, though single readings can be large or run the other way. Where the call is inconclusive, the potency comes from a doubtful curve fit.

Experiment: qHTS for Suppressors of FUS Proteinopathy: Primary screen using FUS-linked yeast assay; further: nearly all actives have a fitted effect of over 55% in size;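 on growth rescue (activation): plate controls were DMSO vehicle for no effect and reference control for full effect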
Settings: S. cerevisiae FUS-expressing, OD600, 24 h; Potency: growth rescue; growth rescue (activation): at 76.6 µM (top of the series)
Method in brief: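 Read-out: OD at 600 nm after 24hr at 30C, reporting rescue of FUS-induced yeast toxicity. Cells at OD 0.005 in galactose (2%) minimal medium; compounds tested in a dilution series; CP55940 titration from 92uM final as control.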
Potency means the concentration at half of the fitted maximal effect; tags describe the fitted curve by direction and shape.

Structure (SMILES) | growth rescue (activation) | Potency
CCc1nn(CC(=O)NCCc2ccc(OC)c(OC)c2)c(=O)c2cc3occc3n12 | inactive: 9.64% | –
COc1ccc(C2CC(=O)C3=C(C2)Nc2ccccc2NC3c2coc3ccccc3c2=O)cc1OC (stereo not given) | – | inconclusive: 35.5 µM [activator, partial curve, poor fit]
CCOc1ccc(NC(=O)C2=C(C)C(=O)OC23CCC(C)CC3)cc1 (stereo not given) | – | inactive
COc1ccccc1NC(=O)c1ccc(-c2nc(COc3ccc(C)cc3)c(C)o2)cc1 | inactive: 16.4% | –
COc1ccc(S(=O)(=O)N(C)C[C@@H]2OCCCC[C@H](C)Oc3ccc(NC(=O)Nc4ccc(C(F)(F)F)cc4)cc3C(=O)N([C@H](C)CO)C[C@H]2C)cc1 | – | inconclusive: 22.4 µM [activator, partial curve, poor fit]
Cc1ccc(-n2c(SCC(=O)N/N=C/C=C\c3ccccc3[N+](=O)[O-])nnc2-c2ccccc2)cc1 | – | inconclusive: 17.8 µM [activator, partial curve, poor fit]
O=C1c2ccccc2/C(=C\c2ccc3[nH]ccc3c2)N1c1ccccc1 | inactive: 38.7% | –
COc1ccc(CNC(=O)C(Cc2ccccc2)NS(=O)(=O)c2ccc3c(c2)CCN3C(C)=O)cc1 (stereo not given) | – | inconclusive: 50.1 µM [activator, single point]
Cc1ccccc1-n1cnc2c(sc3nc(N4CCOCC4)c4c(c32)CCCC4)c1=O | – | inconclusive: 31.6 µM [activator, single point]
CCOc1ccc(NC(=O)CC2C(=O)N(c3ccc(OC)cc3)C(=O)N2C2CCCCC2)cc1 (stereo not given) | – | active: 39.8 µM
COC(=O)c1ccc2c(=O)n(CCCCCC(=O)N3CCN(c4cc(C)ccc4C)CC3)c(=O)[nH]c2c1 | – | inconclusive: 28.2 µM [activator, single point]
CCC(=O)N1CCc2cc(CNS(=O)(=O)c3ccc(C(C)C)cc3)ccc21 | inactive: 23.6% | –
Cc1ccc(C)c(N2CCN(C(=O)CCS(=O)(=O)c3cc(Br)cc4c3N(C(=O)C3CC3)CC4)CC2)c1 | – | inconclusive: 31.6 µM [activator, single point]
CCOC(=O)c1c(C)c(C(=O)NCCN2CCOCC2)c(C)n1C | inconclusive: 52.3% [activator] | –
Cc1ccc(C)c(SCC(=O)OCC(=O)Nc2ccc(S(=O)(=O)N3CCOCC3)cc2)c1 | – | inconclusive: 28.2 µM [activator, partial curve, poor fit]
CCOC(=O)C/C(C)=N\Nc1nc(-c2ccccc2)cs1 | inactive: 8.15% | –
Cc1nc2c3ccccc3nc(NNC(=O)CCC(=O)N3CCN(c4cc(Cl)ccc4C)CC3)n2n1 | – | inconclusive: 28.2 µM [activator, single point]
COc1ccc(S[C@]2(C(=O)N3CCOCC3)CC(=O)N(c3ccccc3)[C@@H]2c2ccc(OC)cc2)cc1 | – | inconclusive: 50.1 µM [activator, partial curve, poor fit]
COC(=O)[C@]12C[C@H](CC(=O)NCc3cccc(C(F)(F)F)c3)C(=O)N(Cc3ccco3)C1=C[C@H](COCc1ccccc1)O[C@@H]2C | – | inconclusive: 17.8 µM [activator, partial curve]
COc1cccc(NC(=O)c2sc3nc(C)c(C(=O)Nc4ccc(C)cc4C)c(-c4ccco4)c3c2N)c1 | – | inconclusive: 14.1 µM [activator, partial curve, poor fit]

Structure (SMILES) | growth rescue (activation) | Potency
CC(=O)c1ccc(NC(=O)COc2ccc3c(c2)OCO3)cc1 | inactive: 11.2% | –
Cc1cccc(N2CCN(C(=O)c3cnn(-c4ccc(F)cc4F)c3C3CCN(C(=O)OC(C)(C)C)CC3)CC2)c1C | inactive: 47.8% | –
Cc1ccc(CNC(=O)Cn2nc(N3CCN(c4ccccc4)CC3)ccc2=O)cc1 | inactive: -4.77% | –
COc1cc(C(=O)Nc2ccc(Cl)c(C(F)(F)F)c2)cc(OC)c1OC | inactive: 13% | –
O=C(Cn1c(/C=C/c2ccccc2)nc2ccccc21)Nc1ccc(F)cc1 | – | inconclusive: 28.2 µM [activator, single point]
CCc1ccccc1NC(=O)c1ccc(Cn2nc(N3CCN(c4ccccc4)CC3)ccc2=O)o1 | – | inconclusive: 31.6 µM [activator, single point]
Fc1ccccc1NC(=S)Nc1ccc(Br)cc1 | inactive: -10.3% | –
O=C(Nc1nc(-c2ccccc2)cs1)c1ccc(N2CCOCC2)c([N+](=O)[O-])c1 | inactive: 14.2% | –
CCCCn1nc(NC(=O)COC)c2cc3ccc(C)cc3nc21 | inactive: -17.9% | –
O=C(NC1CCCCC1)C(c1cc2ccccc2o1)n1c(=O)c(-c2ccco2)nc2ccccc21 (stereo not given) | – | inconclusive: 3.16 µM [activator, full curve, poor fit]
CC(=O)c1ccc(NC(=O)CSc2nnc(-c3ccco3)c(-c3ccco3)n2)cc1 | – | inconclusive: 22.4 µM [activator, single point]
O=C1[C@H]2[C@@H](c3ccc(F)cc3)N3C(=O)N(c4cccc(Br)c4)C(=O)[C@@]3(Cc3ccccc3)[C@H]2C(=O)N1C1CCCCC1 | – | inconclusive: 11.2 µM [activator, partial curve, poor fit]
CN(C)S(=O)(=O)Oc1ccccc1C(=O)Nc1ccc(F)cc1F | inactive: -6.6% | –
COC(=O)[C@]12C[C@H](CC(=O)NCc3ccc(OC)c(OC)c3)C(=O)N(CCc3ccc(OC)c(OC)c3)C1=C[C@H](C1CCCC1)O[C@@H]2C | – | inconclusive: 14.1 µM [activator, partial curve, poor fit]
CN(C)S(=O)(=O)c1ccc(NC(=O)COc2ncnc3sccc23)cc1 | – | inconclusive: 3.98 µM [activator, full curve, poor fit]
CCOC(=O)C(=O)c1csc(NC(=O)COc2ccc(N(C)S(=O)(=O)c3ccc(F)cc3)cc2)n1 | – | inconclusive: 39.8 µM [activator, single point]
O=C(COC(=O)C1CCN(c2ccc(C(F)(F)F)cn2)CC1)NCc1ccc(Cl)cc1Cl | – | inconclusive: 22.4 µM [activator, partial curve, poor fit]
Cc1ccc(Cc2c(-c3ccccc3)nc3ccc(Br)cn23)cc1 | inactive: 29.8% | –
CC(C)CCNC(=O)c1ccc2nc(CCc3ccccc3)oc2c1 | inactive: -11% | –
O=C(OCC(=O)N(CCc1ccccc1)Cc1ccccc1)c1ccccc1NCCO | – | inconclusive: 39.8 µM [activator, single point]

Structure (SMILES) | growth rescue (activation) | Potency
Cc1ccc(C(=O)NCC(c2cccs2)S(=O)(=O)c2ccccc2)cc1C (stereo not given) | inactive: 34.2% | –
CCc1nc2ccc(C(=O)N3CCN(c4cc(C)ccc4C)CC3)cc2nc1CC | – | inconclusive: 28.2 µM [activator, single point] and inconclusive: 35.5 µM [activator, partial curve, poor fit]
CCN(CC)C(=O)CSc1nc2c(sc(=S)n2-c2ccccc2)c(=O)n1-c1ccc(OC)c(OC)c1 | – | inconclusive: 35.5 µM [activator, single point]
CC1=C(C(=O)N(C)C)CC(CC(=O)NCCCCc2ccccc2)C(=O)N1CCC1=CCCCC1 (stereo not given) | – | inconclusive: 28.2 µM [activator, single point]
COc1cccc(/C=C2\SC(=S)N(CCC(=O)NCCc3ccc(O)cc3)C2=O)c1 | – | inconclusive: 56.2 µM [activator, single point]
Cc1ccc(N(C)S(=O)(=O)c2ccc(-c3coc(C)n3)cc2)cc1 | inactive: 4.93% | –
Cc1ccc(-n2c(Cc3cccs3)nnc2SCC(=O)Nc2cccc3ccccc23)cc1 | – | inconclusive: 17.8 µM [activator, partial curve, poor fit]
COc1ccccc1NC(=O)CSc1ccc(-c2ccco2)nn1 | inactive: 27.3% | –
Cc1ccc(S(=O)(=O)N(C)c2ccc(OCC(=O)OCc3nnc(-c4ccccc4)o3)cc2)cc1 | – | inconclusive: 8.91 µM [activator, partial curve]
COc1ccc(NC(=O)c2c(NCc3ccc(OC)c(OC)c3OC)sc3c2CCC3)c(OC)c1 | inactive: 42.2% | –
O=C(NCCCN1CCN(Cc2ccccc2)CC1)C1CCN(c2nnc(-n3cccc3)s2)CC1 | inactive: 0.806% | –
CC(=O)O[C@@H]1C[C@H]2C(C)(C)C(=O)C=C[C@]2(C)[C@H]2CC[C@@]3(C)[C@H](c4ccoc4)OC(=O)[C@H]4O[C@]43[C@@]21C | – | inconclusive: 12.6 µM [activator, partial curve]
CC(C)C[C@H]1CNC(=S)N1C[C@H]1CCCN1C[C@H](Cc1ccc(O)cc1)N1C[C@H](Cc2ccc(O)cc2)N(CC2CCCCCC2)C1=S | – | inconclusive: 28.2 µM [activator, partial curve, poor fit]
COc1cccc(NC(=S)NC(Cc2ccccc2)c2ccccc2)c1 (stereo not given) | inactive: 28.8% | –
CCN(CC)C(=O)[C@H]1C[C@H](CC(=O)NCc2ccco2)C(=O)N2CCc3c([nH]c4cc(-c5ccco5)ccc34)[C@]12C | – | inconclusive: 35.5 µM [activator, single point]
CC(=O)Nc1ccc(-c2ccnc3c2CC(C)(C(=O)Nc2ccc(Cl)c(C(F)(F)F)c2)O3)cc1 (stereo not given) | – | inconclusive: 35.5 µM [activator, single point]
COCCNC(=O)Nc1ccc2nc(-c3cccs3)c(-c3cccs3)nc2c1 | – | inconclusive: 44.7 µM [activator, single point]
CCN(CC)S(=O)(=O)c1cc(NC(=O)C2CCN(c3ncnc4sc(C)c(C)c34)CC2)ccc1Cl | – | inconclusive: 31.6 µM [activator, partial curve, poor fit]
Cc1cc(OC(C)C(=O)N2CCC(c3nc4ccccc4o3)CC2)ccc1Cl (stereo not given) | – | inconclusive: 25.1 µM [activator, single point]
COC(=O)c1ccccc1NC(=O)CSc1nnc(C(CO)NC(=O)c2ccccc2Cl)n1C (stereo not given) | inconclusive: 65% [activator] | –
